Data published in PMC4200520 (2014).

Target: XMAP-Ct, C-terminal coiled-coil fragment of XMAP215 (Xenopus, UniProt Q9PT63 2002-2065)
Experiment: SPR

Sequence of UniProt Q9PT63 (Q9PT63 2002-2065): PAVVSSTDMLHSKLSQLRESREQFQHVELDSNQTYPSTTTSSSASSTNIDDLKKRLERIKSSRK

B1: TD4, minimal TACC domain (TD) fragment of XTACC3 (domain or fragment)
chain: LSTSDAIVEMLKYSQKDMDAAIEAVRLEVQEKDLEVLEWKTKHEKLYLEYVEMGKIIAEFEGTITQILEDSQRQKETAKLELNKVLQEKQQVQVDLNSMETSFSELFKRLEKQKEALEGYRKNEEALKKCVEDYLVRIKKEEQRYQALKAHAEEKLNRANEEIAHVRSKAKSEATALQATLRKEQMKIQSLERSLEQKSKENDELTKICDDFILKMEKI
- Kd: 540 nM
